According to paper PMC4481407:
Results are given in words; binding and its absence hold for the method and conditions named. For some of these results: In cells and extracts the contact can be indirect. Some binding calls cover weakened binding; strength is not graded here. Tags and fused reporters may be left off the sequences shown.

Protein sequences, listed by entry. Tags and fused reporters are not part of them.
UniProt P05205: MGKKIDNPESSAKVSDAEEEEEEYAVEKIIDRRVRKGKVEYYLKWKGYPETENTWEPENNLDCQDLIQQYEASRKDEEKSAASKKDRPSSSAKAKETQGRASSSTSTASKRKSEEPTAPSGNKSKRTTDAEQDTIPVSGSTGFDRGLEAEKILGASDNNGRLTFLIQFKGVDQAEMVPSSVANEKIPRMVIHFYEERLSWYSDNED

T1: HOAP (yeast two-hybrid fusion) (Drosophila melanogaster) (UniProt Q95RV2)
T1 sequence: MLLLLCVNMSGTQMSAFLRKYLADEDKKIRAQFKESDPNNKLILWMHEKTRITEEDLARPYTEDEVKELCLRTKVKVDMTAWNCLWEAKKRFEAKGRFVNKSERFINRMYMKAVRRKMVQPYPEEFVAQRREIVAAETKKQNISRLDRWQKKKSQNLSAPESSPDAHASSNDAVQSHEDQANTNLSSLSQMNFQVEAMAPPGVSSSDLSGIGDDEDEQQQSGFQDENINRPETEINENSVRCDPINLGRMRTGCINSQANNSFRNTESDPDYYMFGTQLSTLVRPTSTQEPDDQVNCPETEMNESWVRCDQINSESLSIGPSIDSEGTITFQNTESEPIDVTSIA

T2: GST-Peo 2 (Drosophila melanogaster) (UniProt Q7K4V4)
T2 sequence: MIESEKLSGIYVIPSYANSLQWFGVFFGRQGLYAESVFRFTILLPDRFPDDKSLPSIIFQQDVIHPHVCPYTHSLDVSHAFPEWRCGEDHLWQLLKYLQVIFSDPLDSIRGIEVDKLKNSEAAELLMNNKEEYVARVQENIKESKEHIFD

T3: GST-Peo 1 (Drosophila melanogaster) (UniProt Q7K4V4)
T3 sequence: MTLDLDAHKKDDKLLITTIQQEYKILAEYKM

T4: GST-Peo 3 (Drosophila melanogaster) (UniProt Q7K4V4)
T4 sequence: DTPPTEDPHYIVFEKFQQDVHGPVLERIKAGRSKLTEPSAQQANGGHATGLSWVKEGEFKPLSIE

T5: GST-Peo (Drosophila melanogaster) (UniProt Q7K4V4)
T5 sequence: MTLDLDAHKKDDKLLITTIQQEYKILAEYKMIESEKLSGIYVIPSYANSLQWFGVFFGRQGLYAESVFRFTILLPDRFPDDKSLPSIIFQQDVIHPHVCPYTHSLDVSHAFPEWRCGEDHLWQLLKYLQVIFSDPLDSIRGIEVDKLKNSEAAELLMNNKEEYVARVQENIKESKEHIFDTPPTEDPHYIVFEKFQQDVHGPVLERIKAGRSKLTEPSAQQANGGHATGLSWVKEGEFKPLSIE

T6: GST-HOAP (Drosophila melanogaster) (UniProt Q95RV2)
T6 sequence: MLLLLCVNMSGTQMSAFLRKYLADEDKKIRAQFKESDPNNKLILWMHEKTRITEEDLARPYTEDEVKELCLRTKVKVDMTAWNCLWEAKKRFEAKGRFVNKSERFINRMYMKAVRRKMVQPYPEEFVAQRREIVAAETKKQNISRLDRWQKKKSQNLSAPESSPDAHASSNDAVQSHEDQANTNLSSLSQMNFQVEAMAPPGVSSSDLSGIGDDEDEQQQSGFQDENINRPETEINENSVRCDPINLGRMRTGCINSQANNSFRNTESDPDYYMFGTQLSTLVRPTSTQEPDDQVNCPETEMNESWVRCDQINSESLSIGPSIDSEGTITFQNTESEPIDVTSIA

T7: GST-HOAP ∆N-TERM (Drosophila melanogaster) (UniProt Q95RV2)
T7 sequence: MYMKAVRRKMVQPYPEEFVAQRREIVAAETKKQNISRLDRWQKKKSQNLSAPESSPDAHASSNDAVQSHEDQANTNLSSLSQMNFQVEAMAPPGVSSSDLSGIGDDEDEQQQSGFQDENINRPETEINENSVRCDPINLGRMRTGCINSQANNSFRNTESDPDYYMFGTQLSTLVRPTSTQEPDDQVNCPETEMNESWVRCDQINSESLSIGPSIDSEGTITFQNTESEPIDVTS

T8: GST-Ver (Drosophila melanogaster) (UniProt Q9VTZ2)
T8 sequence: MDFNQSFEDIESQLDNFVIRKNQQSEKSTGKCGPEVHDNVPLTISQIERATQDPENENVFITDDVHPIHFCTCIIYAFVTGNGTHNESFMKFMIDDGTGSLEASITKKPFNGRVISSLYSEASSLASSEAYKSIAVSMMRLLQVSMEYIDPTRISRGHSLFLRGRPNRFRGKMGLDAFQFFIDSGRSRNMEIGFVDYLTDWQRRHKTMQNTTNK

T9: GST-Moi (Drosophila melanogaster) (UniProt B7Z0L8)
T9 sequence: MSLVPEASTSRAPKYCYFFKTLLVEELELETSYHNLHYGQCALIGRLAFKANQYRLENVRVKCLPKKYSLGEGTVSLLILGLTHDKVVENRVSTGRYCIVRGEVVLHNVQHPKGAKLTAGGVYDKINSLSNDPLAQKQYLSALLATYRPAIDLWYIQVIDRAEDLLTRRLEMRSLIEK


Legend:
[1] = target: T1, HOAP (yeast two-hybrid fusion) (Drosophila melanogaster); experiment: two-hybrid; S. cerevisiae AH109; growth on SD/-His/-Trp/-Leu plates with 20 mM 3-AT; Gal4 BD and AD fusions
[2] = target: HP1a (yeast two-hybrid fusion) (Drosophila melanogaster) (UniProt P05205); experiment: as above
[3] = target: T2, GST-Peo 2 (Drosophila melanogaster); experiment: pull-down; 2 μg bacterially expressed GST-Peo or GST-Peo fragment on sepharose beads with Drosophila S2 cell extracts expressing HOAP-FLAG, Ver-FLAG or Moi-HA; 20 mM Hepes KOH, 20 mM NaF, 0.8% NP40, 1 h at 4°C; anti-FLAG or anti-HA blot; only the target purified
[4] = target: T3, GST-Peo 1 (Drosophila melanogaster); experiment: as above
[5] = target: T4, GST-Peo 3 (Drosophila melanogaster); experiment: as above
[6] = target: T5, GST-Peo (Drosophila melanogaster); experiment: as above
[7] = target: T6, GST-HOAP (Drosophila melanogaster); experiment: pull-down; GST-HOAP polypeptides of different length on sepharose beads with bacterially expressed 6His-Peo; 20 mM Hepes KOH, 20 mM NaF, 0.8% NP40, 1 h at 4°C; His-Peo detected with anti-Peo antibody; both purified
[8] = target: T7, GST-HOAP ∆N-TERM (Drosophila melanogaster); experiment: as above
[9] = target: T8, GST-Ver (Drosophila melanogaster); experiment: pull-down; 2 μg GST fusion protein on sepharose beads with extracts of human cells (HeLa in methods and legend, 293T in results) expressing Peo-FLAG; 20 mM Hepes KOH, 20 mM NaF, 0.8% NP40, 1 h at 4°C; anti-FLAG blot; only the target purified
[10] = target: T6, GST-HOAP (Drosophila melanogaster); experiment: as above
[11] = target: T9, GST-Moi (Drosophila melanogaster); experiment: as above

Row | Binder | binding [3] | binding [4] | binding [5] | binding [6] | further results
1 | Peo (yeast two-hybrid fusion) (protein, UniProt Q7K4V4 1-244) MTLDLDAHKKDDKLLITTIQQEYKILAEYKMIESEKLSGIYVIPSYANSLQWFGVFFGRQGLYAESVFRFTILLPDRFPDDKSLPSIIFQQDVIHPHVCPYTHSLDVSHAFPEWRCGEDHLWQLLKYLQVIFSDPLDSIRGIEVDKLKNSEAAELLMNNKEEYVARVQENIKESKEHIFDTPPTEDPHYIVFEKFQQDVHGPVLERIKAGRSKLTEPSAQQANGGHATGLSWVKEGEFKPLSIE |  |  |  |  | binding [1]: binds; binding [2]: no binding
2 | Moi-HA (protein, UniProt B7Z0L8 1-178) MSLVPEASTSRAPKYCYFFKTLLVEELELETSYHNLHYGQCALIGRLAFKANQYRLENVRVKCLPKKYSLGEGTVSLLILGLTHDKVVENRVSTGRYCIVRGEVVLHNVQHPKGAKLTAGGVYDKINSLSNDPLAQKQYLSALLATYRPAIDLWYIQVIDRAEDLLTRRLEMRSLIEK | binds | binds | no binding | binds | 
3 | Ver-FLAG (protein, UniProt Q9VTZ2 1-214) MDFNQSFEDIESQLDNFVIRKNQQSEKSTGKCGPEVHDNVPLTISQIERATQDPENENVFITDDVHPIHFCTCIIYAFVTGNGTHNESFMKFMIDDGTGSLEASITKKPFNGRVISSLYSEASSLASSEAYKSIAVSMMRLLQVSMEYIDPTRISRGHSLFLRGRPNRFRGKMGLDAFQFFIDSGRSRNMEIGFVDYLTDWQRRHKTMQNTTNK | binds | binds | no binding | binds | 
4 | HOAP-FLAG (protein, UniProt Q95RV2 1-345) MLLLLCVNMSGTQMSAFLRKYLADEDKKIRAQFKESDPNNKLILWMHEKTRITEEDLARPYTEDEVKELCLRTKVKVDMTAWNCLWEAKKRFEAKGRFVNKSERFINRMYMKAVRRKMVQPYPEEFVAQRREIVAAETKKQNISRLDRWQKKKSQNLSAPESSPDAHASSNDAVQSHEDQANTNLSSLSQMNFQVEAMAPPGVSSSDLSGIGDDEDEQQQSGFQDENINRPETEINENSVRCDPINLGRMRTGCINSQANNSFRNTESDPDYYMFGTQLSTLVRPTSTQEPDDQVNCPETEMNESWVRCDQINSESLSIGPSIDSEGTITFQNTESEPIDVTSIA | no binding | binds | no binding | binds | 
5 | 6His-Peo (protein, UniProt Q7K4V4 1-244) MTLDLDAHKKDDKLLITTIQQEYKILAEYKMIESEKLSGIYVIPSYANSLQWFGVFFGRQGLYAESVFRFTILLPDRFPDDKSLPSIIFQQDVIHPHVCPYTHSLDVSHAFPEWRCGEDHLWQLLKYLQVIFSDPLDSIRGIEVDKLKNSEAAELLMNNKEEYVARVQENIKESKEHIFDTPPTEDPHYIVFEKFQQDVHGPVLERIKAGRSKLTEPSAQQANGGHATGLSWVKEGEFKPLSIE |  |  |  |  | binding [7]: binds; binding [8]: no binding
6 | Peo-FLAG (protein, UniProt Q7K4V4 1-244) MTLDLDAHKKDDKLLITTIQQEYKILAEYKMIESEKLSGIYVIPSYANSLQWFGVFFGRQGLYAESVFRFTILLPDRFPDDKSLPSIIFQQDVIHPHVCPYTHSLDVSHAFPEWRCGEDHLWQLLKYLQVIFSDPLDSIRGIEVDKLKNSEAAELLMNNKEEYVARVQENIKESKEHIFDTPPTEDPHYIVFEKFQQDVHGPVLERIKAGRSKLTEPSAQQANGGHATGLSWVKEGEFKPLSIE |  |  |  |  | binding [9]: binds; binding [10]: binds; binding [11]: binds
